Measurements as given in PubChem BioAssay AID1963576 (National Center for Advancing Translational Sciences (NCATS), 2024).
The campaign covered roughly 46,000 compounds. About 60 (0.1%) were called active. Another 3% or so got no clear call; they are omitted. Calls follow the shape of the dose curve; as a rule, active = well fitted inhibition curve with a large enough effect; inconclusive = small, poorly fitted or top-dose-only effect; inactive = no such curve, though single readings can be large or run the other way. The list shows a part of the results.

Experiment: Primary qHTS assay for Inhibitors of ovarian cancer metastasis using an organotypic tumor microenvironment (TME) model. Also: nearly all actives have a fitted effect of over 65% in size.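 As to activity change, negative = inhibition: plate controls were DMSO wells for no effect and tomatine positive control wells for full effect.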
Settings: SKOV3ip1-GFP adhesion/invasion on 3D omental model, fluorescence; series mostly up to 45.8 µM; activity change, negative = inhibition: at the top concentration
In short: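 Primary human omental fibroblast/mesothelial 3D culture pre-formed 48 h. SKOV3ip1-GFP cells added with compounds (0.36-46 umol/L), incubated 2 h RT/16 h 37 C, fixed; GFP cells quantified at 488/509 nm.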

outcome, inactive:
Cc1cc(NC(=O)N(C)CCc2c(C)nn(C)c2C)ccc1Br
CC1(C)O[C@H]2[C@@H](O1)[C@@H](C(=O)Nc1ccc(F)c(F)c1)O[C@@H]1OC(C)(C)O[C@@H]12
CCc1cccc(C)c1NC(=O)CSc1nc2ccccc2nc1N1CCOCC1
Cc1nn2c(C)c(C(=O)NCC(C)c3ccccc3)cnc2c1-c1ccccc1 (configuration not stated)
CCOc1ccc(CCNC(=O)Cn2nc(CC)n3c(cc4sccc43)c2=O)cc1
CCC(C(=O)NCc1ccccc1Cl)n1nc(C)c2sc3ccccc3c2c1=O (configuration not stated)
Cc1cccc(NC(=O)CSc2nccn2-c2cccc(Cl)c2)c1C
O=c1cc(-c2ccccc2)n2c(SCc3cccc([N+](=O)[O-])c3)nnc2[nH]1
O=C(CCCn1c(=O)c2sccc2n(Cc2cccc(Cl)c2)c1=O)NCc1ccc2c(c1)OCO2
COc1ccc(-c2oc3ncn4nc(-c5ccccc5C)nc4c3c2-c2ccc(OC)cc2)cc1
COc1ccc(CNC(=O)CCc2nnc3n(CC(C)C)c(=O)c4ccccc4n23)cc1
O=S(=O)(Nc1ccc(-c2ccc(N3CCCC3)nn2)cc1)c1cccc(C(F)(F)F)c1
CCn1ccc2cc(S(=O)(=O)N3CCCN(C(=O)NCCOC)CC3)ccc21
COc1ccc(C)cc1NS(=O)(=O)c1ccc2[nH]c(=O)c(=O)[nH]c2c1
O=c1c2ccccc2n(Cc2ccccc2F)c(=O)n1-c1cccc(F)c1

Activity change, negative = inhibition, inactive:
CSc1ccc(CCNC(=O)CN2C(=O)c3cccnc3Oc3ccc(C)cc32)cc1 5.84%
COc1ccccc1CN1C(=O)CN(C2CCCCCC2)C(=O)C1c1ccc(C)cc1 (configuration not stated) -11.1%
Cc1cc(F)ccc1NS(=O)(=O)c1c(C)nc2scc(C)n2c1=O -32.8%
COc1ccc(Cn2c(SCc3ccc(C(=O)NCc4cccs4)cc3)nc3cccnc32)cc1 -5.47%
COc1ccc(C2NC(=O)N(C)C3=C2C(=O)N(c2ccc(F)cc2)C3)cc1 (configuration not stated) 1.16%
O=C(NCCc1nc2ccccc2n1CCCOc1ccc(Cl)cc1)C1CCCCC1 -8.73%
O=C(Nc1c2c(nn1-c1ccc(Cl)cc1)CS(=O)(=O)C2)c1ccccc1F 29.3%
Fc1ccc(Cn2c(-c3cccc(Br)c3)nc3ccccc32)cc1 -7.21%
Cc1ccc(NC(=O)c2sc(-n3nc(C)c(Cc4ccc5c(c4)OCO5)c3C)nc2C)cc1C 0.919%
CCOc1cc(C2c3c(-c4ccccc4O)n[nH]c3C(=O)N2Cc2cccnc2)ccc1O (configuration not stated) -3.63%
COc1ccc(C(=O)Nc2noc3ccccc23)cc1 -1.71%
CNS(=O)(=O)c1cn(CC(=O)N2CCN(c3cc(C)ccc3C)CC2)cc1S(=O)(=O)NC -5.67%
Cc1cc(C)cc(NC(=O)CSCc2cc(=O)c3ccc(C)c(C)c3[nH]2)c1 -3.58%
CCOC(=O)CN1C(=O)c2cccnc2Oc2ccccc21 -0.799%
COc1ccc(NC(=O)CSc2nc(-c3ccco3)nc3cc(=O)[nH]n23)cc1 -4.68%
COc1ccc(CCNC(=O)CCn2c(=O)c3cccn3c3cccnc32)cc1OC -3.7%
CCc1ccccc1Nc1nc2ccccc2n2cnnc12 1.06%
CCCCN(c1ccccc1)S(=O)(=O)c1ccc2c(c1)CC(C)N2C(=O)C1CC1 (configuration not stated) -9.02%
NC(=O)C1CCN(C(=O)Cn2c(-c3cccs3)cc3ccccc32)CC1 -12%
Cc1cc(C(=O)Nc2c(C)nn(Cc3ccc(F)cc3)c2C)no1 6.28%
CCOc1ccc(NC(=O)CN2CCN(CC(=O)Nc3ccccc3OCC)CC2)cc1 -3.77%
CCC(C)(C)c1ccc(CC(C)CN2C[C@@H](C)O[C@@H](C)C2)cc1 (some centres not stated) -16.9%
CCOc1cc(C(=O)N2CCC(c3ccncc3)CC2)cc(OCC)c1OCC 5.24%
COc1ccc(Cl)cc1NC(=O)CSc1nc(-c2ccco2)cc(C(F)(F)F)n1 -7.37%
Cc1cccc(C)c1OC(=O)CSc1nnc(-c2cccs2)o1 -3.97%
CCOC(=O)c1ccc(NC(=O)COC(=O)c2cn(CC)c3nc(C)ccc3c2=O)cc1 -5.65%
COc1ccccc1-n1nc(-c2ccccc2)c2cnc3cc(C(F)(F)F)ccc3c21 -10.6%
CC1CN(S(=O)(=O)c2ccc3c(c2)NC(=O)CC(=O)N3)c2ccccc2O1 (configuration not stated) -2.12%
Cc1ccc(C)c(CN2C(=O)c3ccccc3S(=O)(=O)c3ccc(C(=O)N4CCN(c5ccccc5F)CC4)cc32)c1 19.2%
CCOC(=O)c1ccc(C#Cc2ccc3c(c2)C(C)(C)CCS3)nc1 -13.5%
CCOC(=O)C1=C(CN2CCN(c3cc(C)ccc3C)CC2)NC(=O)NC1c1ccc(Cl)cc1 (configuration not stated) -1.84%
COc1cccc(NC(=O)Cn2c(=O)n(CCCCC(=O)NCCc3ccccc3)c(=O)c3ccccc32)c1 -0.923%
CCS(=O)(=O)N1CCc2cc(C(=O)Nc3cc(C(F)(F)F)ccc3Cl)ccc21 7.32%
Cc1ccccc1C(=O)Nc1ccc2c(c1)CCCN2C(=O)c1cccs1 -9.88%
CSc1ccc(CNC(=O)CCn2c(=O)c3cccn3c3ccc(F)cc32)cc1 8.27%
Cc1cccc(NC(=O)c2ccc(-c3nc(CSc4ccccc4)c(C)o3)cc2)c1C -17.9%
COc1ccccc1CNC(=O)c1cnc2sc(N3CCCCCC3)nn2c1=O -0.54%
O=C(CSc1nnc2ccc3ccccc3n12)c1ccc(F)cc1 0.266%
Cc1ccc(C(=O)Nc2onc3c2CCCC3)cc1 -11.1%
COCCNC(=O)CCN1C(=O)c2cccnc2Oc2ccc(C)cc21 -0.876%
COc1ccc(C(=O)Nc2ccc(-c3nc4ccccc4s3)cc2C)cc1Cl 4.43%
COC(=O)c1cc2occc2n1Cc1cccc(C)c1 -0.731%
COc1ccc(C(=O)N2CCC(c3nc(-c4ccc(S(=O)(=O)N5CCCC5)cc4)no3)CC2)cc1 0.0572%
COc1ccc(-n2c(=O)c3ccccc3n(Cc3ccccc3C)c2=O)c(OC)c1 -16.6%
CC(=O)Nc1nonc1-c1nnc(SCC(=O)Nc2ccc(C)c(Cl)c2)n1-c1ccccc1 -45.4%
Cc1ccc(-n2nc(C(=O)Nc3ccc(C)c(F)c3)c3c4ccccc4n(C)c3c2=O)cc1 10.4%
NC(=O)Cn1c(=O)n(CCCCCC(=O)NCc2ccccc2)c(=O)c2sccc21 4.3%
